The chains are these.
B1: chr19:12699869:12699961:-|3pUTR|ENSG00000105576|msi1_unk|total|mutant (ssRNA)
RNA: GGGAGUUCUACAGUCCGACGAUCGAGGGUGGGGGUGCCGUUACUUCCCAGUUGGCCAGAAAACUGGGCCUUGCAGACCCCCUCCGCAUUUUUUCCCUUUUUUUCCUUCCCUGCUUUCUACUUCUUUGGGGAGCCCCUUGUGUUCAACAGAGGAUUGAGCAUCA
B2: chr3:14145182:14145283:-|3pUTR|ENSG00000154767|unk|total|mutant (ssRNA)
RNA: GGGAGUUCUACAGUCCGACGAUCUGAAAAUUAAGGAAAUGUCCGUAAAACCGAUGAGUGUUAAACCCGAUUGUAUUCAUUACCCGAUAAAAUGUAUAAAGCUCUCUGUACUAAGGAGAAAUGACUUUUAUAACAUUUUGAGAACAACAGAGGAUUGAGCAUCA
B3: chr6:36925625:36925726:+|3pUTR|ENSG00000198663|msi1|FALSE|unique (ssRNA)
RNA: GGGAGUUCUACAGUCCGACGAUCACUUCUCAAGUUAAUUUUGAUAAGCAGAAUCUACUACUGGCCAGAGCGACAGGAGUGGCUAGGGGUUGCCAGCCAGUCCCUUUCUGAUGAUCAAGGCCCUGCACAGCAGGAUGCCACAGGCAACAGAGGAUUGAGCAUCA
B4: chr4:87981664:87981765:+|CDS|ENSG00000118785|msi1|total|mutant (ssRNA)
RNA: GGGAGUUCUACAGUCCGACGAUCCACUGAUUUUCCCACGGACCUGCCAGCAACCGAAGUUUUCACUCCAGUUGUCCCCACAGCCGACACAUAUGAUGGCCGAGGUGACCGUGUGGUUUAUGGACUGAGGUCAAAAUCUAAGAACAACAGAGGAUUGAGCAUCA
B5: chr1:246907611:246907713:-|CDS|ENSG00000153207|unk|total|mutant (ssRNA)
RNA: GGGAGUUCUACAGUCCGACGAUCUGAAGUACCACACAUCCGAGAAAGUGUAAUGAGACAAGGGCGCCAUCUGUGUUUCCAGUCCGUAAGUCCAACAGGAACAGCUGUUUCAACUCUCCGUUACAUAAGCAGGACAAAUCAGCUCAACAGAGGAUUGAGCAUCA
B6: chr3:23980279:23980388:+|3pUTR|ENSG00000174738|unk|FALSE|unique (ssRNA)
RNA: GGGAGUUCUACAGUCCGACGAUCUUUUUCUUUUCCAAUAUAAAGUUUGCUGAAUGUACAAGAAGAGUUUAUCACUUAGGAUAUAGAAUUUUUUUAGGGGUUGGGGGAGGGGAUCUGUUAGGAAACUGUUACCUAUAAACAAAGCAACAGAGGAUUGAGCAUCA
B7: ENSG00000110321:stop:overlap|stop_codon|ENSG00000110321|stop_codon|NA|stop_codon (ssRNA)
RNA: GGGAGUUCUACAGUCCGACGAUCACAACUCCGCAAACGAAAAAGAACGACAUGAUGCAAUCUUCAGGAAAGUAAGAGGGAUCUAGGGGUGUUUAUUCCUGCUCCUAUGGCUCAAGGGAUGAGAAGUGACUUCUUUCUGGAGGGCAACAGAGGAUUGAGCAUCA
B8: chr12:64128047:64128160:+|CDS|ENSG00000196935|unk|FALSE|unique (ssRNA)
RNA: GGGAGUUCUACAGUCCGACGAUCGGCAGCCUGACCAACAUCAGCCGGCACGACUCCCUCAAGAAGAUCGACAGCCCUCCCAUUAGAAGGUCCACGUCAUCAGGGCAAUACACGGGCUUCAAUGACCACAAGCCACUGGACCCACAACAGAGGAUUGAGCAUCA
B9: chr3:30797676:30800881:-|three_prime_utr|ENSG00000144644|control|control|control (ssRNA)
RNA: GGGAGUUCUACAGUCCGACGAUCUGUGUGUGUGUGUGUGUGUGUGUGUGUGUGUGUGUGUGUGUGUCUAUCUGUGUCUGUAAUAGGAAGACCUAAGGAAAGUAAUACUUGAAAUGUGUUGCAAGUACAUGUUUUCAUUUGUGCCAACAGAGGAUUGAGCAUCA
B10: chr9:101390727:101390839:-|CDS|ENSG00000136897|unk|FALSE|unique (ssRNA)
RNA: GGGAGUUCUACAGUCCGACGAUCCAGAAAAGAGAAAGAGCCAGUGGUUGUUGAGACAGUAGAAGAGAAAAAGGAACCUAUCCUAGUGUGUCCACCUUUACGAAGCCGAGCAUACACACCACCUGAAGAUCUCCAGAGUCGUUUCAACAGAGGAUUGAGCAUCA
B11: ENSG00000119689:stop:overlap|stop_codon|ENSG00000119689|stop_codon|NA|stop_codon (ssRNA)
RNA: GGGAGUUCUACAGUCCGACGAUCCUUUCCUCCGCAAAAUCAAGGCAGCGGUAGAGGAUCCCAGAGUCCUCCUCCUGGAUCUUUAGGAGGAACCCACACACCCUACAAGUUGAUCAUGCAGGAACUGAAAACCAGUCUUCUCCCCAACAGAGGAUUGAGCAUCA
B12: ENSG00000107863:be:win_751|CDS|ENSG00000107863|bound_else_gene|NA|bound_elsewhere_windowed (ssRNA)
RNA: GGGAGUUCUACAGUCCGACGAUCCCUCCAUCACCAACAGAUGUUGCAAAAUCAAACACAGCAGUGUGUGUUUGCAAUGAAAGUGUAAGGACUGUCAUUGUGCCUUCUGAGAAGGUUGUAGAUUUGUUAUCCAAUAGAAACAACCAACAGAGGAUUGAGCAUCA
B13: chr5:82277714:82277885:-|CDS|ENSG00000186468|unk|FALSE|unique (ssRNA)
RNA: GGGAGUUCUACAGUCCGACGAUCAACUAAAAUAUUUAAUUUUUAGGCAAGUGUCGUGGACUUCGUACUGCUAGGAAGCUCCGUAGUCACCGACGAGACCAGAAGUGGCAUGAUAAACAGUAUAAGAAAGCUCAUUUGGGCACACAACAGAGGAUUGAGCAUCA
B14: ENSG00000070961:be:win_4001|3pUTR|ENSG00000070961|bound_else_gene|NA|bound_elsewhere_windowed (ssRNA)
RNA: GGGAGUUCUACAGUCCGACGAUCAGUAAAACUGGGCAAGACAAAGAGCCCUGGAUCGUUGAAUUGAUAGUUUAAUUUCUGCUGUUGGCUGUUAAUAAUUUGGAUUAUUUAUGUUUAUAAAUGAUACAGAUCUGUUUACAAGGUCAACAGAGGAUUGAGCAUCA
B15: chr15:85581792:85581893:+|CDS|ENSG00000170776|unk|total|mutant (ssRNA)
RNA: GGGAGUUCUACAGUCCGACGAUCUGCCCAGGACGCACCUCUGCCUAAGGGGGCAGACUUGACCGAGGAGGCUGCCAGCCGUACCGUGGAUGCUGUCAUCGAACAAGUCAAGGCCGCUGGAGCACUGCUUACUGAGGGGGAGGCCAACAGAGGAUUGAGCAUCA
B16: chr10:116062369:116062470:-|3pUTR|ENSG00000151892|msi1|FALSE|unique (ssRNA)
RNA: GGGAGUUCUACAGUCCGACGAUCCUUUUUUCACUUCAAAAUGUUUUCAAGGGAAAUUCAGCAGACACCCAACUGUAUUUAAUUAGUGAAAAGAUCUAUAAAGACUCUUACUUUGAAUAAACACAUUAAGUAAGUGUGUCAAAACAACAGAGGAUUGAGCAUCA
B17: ENSG00000136451:be:win_1451|CDS_3pUTR|ENSG00000136451|bound_else_gene|NA|bound_elsewhere_windowed (ssRNA)
RNA: GGGAGUUCUACAGUCCGACGAUCCUCCAAUGAAUCUACCCACACCUAUGACAUUAGCCGCCCCUCUCAAUAUAGCAAUGAGACCUGUAGAGAGCAUGCCUUUCUUGCCCCAAGCUUUGCCUACAUCACCGCCUUGGUAAACAGCAACAGAGGAUUGAGCAUCA
B18: chr12:107752058:107752159:-|CDS|ENSG00000110851|unk|total|mutant (ssRNA)
RNA: GGGAGUUCUACAGUCCGACGAUCUAACUCUAUAAAUGUUGAUGGUAAUACAGCAUUAUCUAUCACCAAUAACCCUUCAGCACCCGAUCCCUAUCAGUCCAAUGGAAAUGUUGGAUCCGAACCAGGCAUUGUUUCAACCGACUCCAACAGAGGAUUGAGCAUCA
B19: chrX:120253675:120253799:+|CDS|ENSG00000177485|unk|total|mutant (ssRNA)
RNA: GGGAGUUCUACAGUCCGACGAUCUAAAAUUGUUCGUGUCCGAUCAGAUUUGCUUGAUGAGUUAAUUAAAUCAGGGCAGUUAUCCGGAGUGAAAUUUACCGCAGAGCUUGGUGUCCCAUUGUCACAGGUUAAAAGCAUCUCAGGCAACAGAGGAUUGAGCAUCA
B20: chr17:3448806:3449149:-|CDS|ENSG00000141255|control|control|control (ssRNA)
RNA: GGGAGUUCUACAGUCCGACGAUCAACCGAGCUACUCAGACAAACACAUUCAUCAAAAAUAUCUGGCUGCACAAUGAGAGGGCUAGACAAAAACAGUGCACUACAGACACUUAAGCCCAAUUUUCAACAAAAUCAAUAUAAGAACAACAGAGGAUUGAGCAUCA
B21: ENSG00000107863:be:win_6401|3pUTR|ENSG00000107863|bound_else_gene|NA|bound_elsewhere_windowed (ssRNA)
RNA: GGGAGUUCUACAGUCCGACGAUCCUUUUAAUACAGUUUUUGAGUUUUGUGUGACUUGAAUUUUUAAUCUUUCUGUAAAAUACGUAACUUAAAUGAACAUAUUAAAUGUGUAUCUUUUCUUCAGAUACCAGAUUUGAUAUAAUGCAACAGAGGAUUGAGCAUCA
B22: ENSG00000136451:be:win_1351|CDS|ENSG00000136451|bound_else_gene|NA|bound_elsewhere_windowed (ssRNA)
RNA: GGGAGUUCUACAGUCCGACGAUCCCAUUAUCCAUGACCUCUCCUUUAACACUCACUACCCCAGUCAACCUCCCCACCCCCGUCACUGCCCCAGUGAAUAUAGCACACCCUGUCACCAUCACAUCUCCAAUGAAUCUACCCACACAACAGAGGAUUGAGCAUCA

The list shows a part of the results.

Among the data in PMC12136788 are binding signal values, retold here.

This assay deals with MSI1 full-length (mouse, UniProt Q61474 1-362). Put plainly: nsRBNS (natural sequence RNA bind-n-seq); RBNS binding buffer (assumed for nsRBNS): 25 mM Tris pH 7.5, 150 mM KCl, 3 mM MgCl2, 0.01% Triton X-100, 500 ug/ml BSA, 20 U/ml SUPERase-In, 4 C; UNK is unkempt and MSI1 is Musashi-1; names of the RNAs are library labels; protein concentration not given here; high values mean tight binding.
Chain of UniProt Q61474 (Q61474 whole entry): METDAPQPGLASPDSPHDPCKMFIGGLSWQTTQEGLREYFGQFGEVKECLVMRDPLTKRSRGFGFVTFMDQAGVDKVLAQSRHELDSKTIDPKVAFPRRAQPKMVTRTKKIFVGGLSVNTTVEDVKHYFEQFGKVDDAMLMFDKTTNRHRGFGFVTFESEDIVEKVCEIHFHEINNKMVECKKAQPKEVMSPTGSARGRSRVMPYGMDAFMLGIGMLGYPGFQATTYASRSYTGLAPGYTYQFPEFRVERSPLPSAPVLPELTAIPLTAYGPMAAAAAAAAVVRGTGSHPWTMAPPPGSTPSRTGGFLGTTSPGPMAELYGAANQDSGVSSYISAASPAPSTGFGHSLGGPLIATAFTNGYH
The molecule B1 showed a binding signal of 0.62 enrichment R.
For B2, the binding signal was 0.275 enrichment R.
The result for B3 reads 0.401 enrichment R.
Consider B4, for which the binding signal came to 0.314 enrichment R.
The molecule B5 registered a binding signal of 0.467 enrichment R.
The result for B6 reads 3.65 enrichment R; that for B7, 7.48 enrichment R.
The result for B8 reads 0.622 enrichment R; that for B9, 0.617 enrichment R.
Under B10 stands 0.597 enrichment R.
B11 yielded a binding signal of 0.536 enrichment R.
For the molecule B12, the binding signal was found to be 0.479 enrichment R.
With B13, the binding signal was 0.842 enrichment R.
Under B14 stands 0.47 enrichment R; under B15, 0.526 enrichment R.
Under B16 stands 0.713 enrichment R; under B17, 2.88 enrichment R; under B18, 0.32 enrichment R.
Molecule B19 gave a binding signal of 0.298 enrichment R.
The result for B20 reads 0.471 enrichment R; that for B21, 0.392 enrichment R.
For the molecule B22, the binding signal came to 2.42 enrichment R.
